Screen size: about 120,000 compounds; about 5,300 (4.4%) were called active. The inconclusive results got no clear call from the source; some entries with a clear call stand among them for comparison. The call rests on the fitted dose curve; in most records, active means well fitted inhibition curve with a large enough effect; inconclusive means small, poorly fitted or top-dose-only effect; inactive means no such curve, though single readings can be large or run the other way. Where the call is inconclusive, the potency comes from a doubtful curve fit.
Test: qHTS Primary assay for Inhibitors of Plasmodium falciparum Dd2 growth in vitro; further: nearly all actives have a fitted effect of over 65% in size;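 on activity, negative = inhibition: plate controls were DMSO vehicle for no effect and reference drug for full effect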
Conditions: P. falciparum Dd2 growth, SYBR Green, 72 h; activity, negative = inhibition: at 28.9 µM (top of the series) unless noted; series mostly up to 28.9 µM
Method in brief: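 Infected erythrocytes (Dd2, 0.3% parasitemia, 2.5% hematocrit final) are added to compound in RPMI-1640/Albumax II medium, grown 72 h at 37C in low oxygen, then lysed with saponin/Triton-X containing SYBR Green and read by fluorescence.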
Potency means the concentration at half of the fitted maximal effect; tags describe the fitted curve by direction and shape.

| SMILES | Potency | activity, negative = inhibition |
| --- | --- | --- |
| CCSC1=NC2(CCN(C(=O)NC3CCCCC3)CC2)N=C1c1ccc(OC)cc1 | active: 7.08 µM | – |
| COC(=O)N1CCC2(C1)OC(=O)Nc1ccccc12 (stereo unspecified) | inactive | – |
| Cc1ccc(C2Cn3nnc(C(=O)N4CCC(C(=O)NCc5cccc(Cl)c5)CC4)c3CO2)cc1 (stereo unspecified) | inactive | – |
| Fc1ccc(-c2ccc3ncc(Nc4ccncc4)n3n2)cc1 | inconclusive: 5.01 µM [inhibitor, full curve, poor fit] | – |
| CCN(C(=O)CSc1nc2ccccc2nc1Cc1ccccc1OC)c1ccccc1 | inactive | – |
| Cc1cc2nc3n(c(=O)c2n1CC(=O)Nc1ccc(F)c(F)c1)CCCCC3 | inactive | – |
| CC(C)NC(=O)N1CCN2C(=O)N(C(C)C)C(=O)[C@H]2C1 | inconclusive: 1 µM [inhibitor, partial curve, poor fit] | – |
| CO[C@H]1C(=O)N(C(C)C)[C@H]1C1CCN(C(=O)c2cnn(C)c2)CC1 | inactive | – |
| CC(C)c1ccc(NC(=O)CN2C(=O)C3(SCC(=O)N3c3ccc(F)cc3)c3ccccc32)cc1 (stereo unspecified) | inconclusive: 11.2 µM [inhibitor, single point] | – |
| O=C(Nc1ccc(Cl)cc1)c1ccc2c(c1)N(Cc1ccccc1)CCS2 | active: 4.47 µM | – |
| COc1ccc(NC(=O)Cn2c(=O)n(Cc3ccco3)c(=O)c3sc4ccccc4c32)cc1Cl | inconclusive: 17.8 µM [inhibitor, single point] | – |
| Cc1ccc(-c2cc3c(ccn3C)c(C(=O)NCCc3cnc[nH]3)n2)cn1 | inconclusive: 31.6 µM [inhibitor, single point] | – |
| O=C(Nc1ccc(C2(C(=O)NCc3ccccn3)CCCCC2)cc1)C1CC1 | inconclusive: 20 µM [inhibitor, single point] | – |
| CCS(=O)(=O)N1CC[C@H]2C(=O)NCCCCCN(Cc3cccnc3)[C@@H]2C1 | inactive | – |
| CN(C)c1nc2c(c(=O)[nH]1)CCN(Cc1ccccc1Br)CC2 | active: 1.12 µM | – |
| CCOC(=O)C1(Cc2ccccc2C(F)(F)F)CCN(Cc2ccccn2)CC1 | active: 6.31 µM | – |
| CCOCCN1C(=O)COC[C@@H]1[C@H](O)c1ccc(NC(=O)c2ccnc(Cl)c2)cc1 | inactive | – |
| O=C(NCc1ccc2c(c1)OCO2)c1nc(-c2ccc(Cl)cc2)c2cnccn12 | inconclusive: 1.41 µM [inhibitor, partial curve, poor fit] | – |
| COc1cc(-c2ccc(-c3nc(CC(C)C)no3)cn2)cc(OC)c1OC | inconclusive: 5.62 µM [inhibitor, partial curve, poor fit] | – |
| Cc1ccccc1OCc1nc(C2CN(C(=O)C(C)c3ccccc3)C2)no1 (stereo unspecified) | inconclusive: 20 µM [inhibitor, single point] | – |
| Cc1ccc(C(=O)CC2(O)C(=O)N(CCc3ccccc3)c3ccc(Br)cc32)cc1 (stereo unspecified) | active: 10 µM | – |
| O=C(CSC1=Nc2ccccc2C2=NC(CCC(=O)NC3CCCCC3)C(=O)N12)Nc1cccc(C(F)(F)F)c1 (stereo unspecified) | active: 10 µM | – |

| SMILES | Potency | activity, negative = inhibition |
| --- | --- | --- |
| O=C(CCOc1ccccc1)N(Cc1cccnc1)c1nc2c(F)cc(F)cc2s1 | inconclusive: 17.8 µM [inhibitor, single point] | – |
| COc1ccc(CC(=O)N2CC[C@H]3COC(=O)N3c3cc(F)ccc3C2)cc1 | inactive | – |
| O=C(N[C@@H]1CNC[C@H]1O)C1CCN(c2nc(-c3ccccc3)nc3c2CCC3)CC1 | inactive | – |
| COc1ccccc1N1CCN(c2ccc(NC(=O)c3ccc(C)cc3)cc2C(=O)O)CC1 | inconclusive: 4.47 µM [inhibitor, partial curve, poor fit] | – |
| CSc1cccc(NC(=O)N[C@H]2CCN(C(=O)c3cccn3C)[C@@H]2C(=O)N[C@H]2CCCNC2=O)c1 | inconclusive: 1 µM [inhibitor, partial curve, poor fit] | – |
| COc1ccc(CNC(=O)Cc2c[nH]c3ncc(-c4ccccc4)cc23)cc1OC | inconclusive: 31.6 µM [inhibitor, single point] | – |
| COc1cccc(CCC(=O)NC2CCN(c3cc(C(F)(F)F)nc(C)n3)CC2)c1 | inconclusive: 10 µM [inhibitor, single point] | – |
| CCc1ccccc1N1CC(c2nc3ccccc3n2CCCOc2ccc(Cl)cc2)CC1=O (stereo unspecified) | inconclusive: 8.91 µM [inhibitor, partial curve] | – |
| CC(C)c1noc(CN(C)C(=O)c2cc(-c3cnn(C)c3)nc3ccccc23)n1 | inconclusive: 17.8 µM [inhibitor, single point] | – |
| COc1cc(OC)c(NC(=O)c2csc3c2CCC(C)C3)cc1Cl (stereo unspecified) | inconclusive: 10 µM [inhibitor, single point] | – |
| COc1ccc(CCNC(=O)CCc2c(C)nc3c(c(C)nn3-c3ccc(C)c(C)c3)c2C)cc1OC | inconclusive: 1 µM [inhibitor, full curve] | – |
| COc1ccc(NC(=O)CN2CCN(Cc3ccccc3)S2(=O)=O)c(OC)c1 | inconclusive: 1 µM [inhibitor, single point] | – |
| COc1ccccc1CNC(=O)CCC[C@H]1NC[C@@H]2C[C@H]1CN(Cc1ccccc1)C2 | inconclusive: 12.6 µM [inhibitor, single point] | – |
| CO[C@H]1C(=O)N(C2CCN(C(=O)CCc3c[nH]c4ccccc34)CC2)[C@H]1c1ccncc1 | inactive | – |
| COc1ccc(CN2CCc3nc(N(C)C)[nH]c(=O)c3CC2)cc1CN1CCOCC1 | – | inactive: 28.2% [at 5.79 µM] |
| CCOC(=O)N1CCc2c(sc3c2c(=O)n(-c2ccccc2)c(=O)n3CC(=O)Nc2ccc(OC)cc2OC)C1 | active: 4.47 µM | – |
| COc1ccccc1CNC(=O)c1ccc(Cn2c(SCc3ccccc3)nc3cccnc32)cc1 | active: 8.91 µM | – |
| CN(c1ccccc1)c1ccc2nnc(-c3cc(C(=O)NCCc4ccccc4)ccn3)n2n1 | active: 8.91 µM | – |
| N#Cc1ccccc1CN1C(=O)c2ccccc2Sc2ccc(C(=O)OCc3ccco3)cc21 | inconclusive: 3.16 µM [inhibitor, partial curve] | – |
| CCOC(=O)c1c(C)oc2nc(C)nc(NCCCN3CCN(c4ccccc4)CC3)c12 | inactive | – |
| N#Cc1ccc(CN2CC3(Cc4ccccc4NC3=O)C2)cc1 | inactive | – |
| Cc1ccc(NC(=O)N2CCCCCCN(C)C(=O)CC2)cc1C | inconclusive: 17.8 µM [inhibitor, single point] | – |

| SMILES | Potency | activity, negative = inhibition |
| --- | --- | --- |
| CN(C)c1nc2c(c(=O)[nH]1)CCN(Cc1ccc(OC(F)(F)F)cc1)CC2 | – | inactive: 8.82% [at 5.79 µM] |
| O=C(NCCc1ccccc1)N1CC(c2nc(CCOCC3CC3)no2)C1 | inconclusive: 20 µM [inhibitor, single point] | – |
| O=C(Cc1cccc(Cl)c1)N1CCC(c2nn(-c3ccccc3)c(=O)[nH]2)CC1 | inconclusive: 17.8 µM [inhibitor, single point] | – |
| COc1ccc(NC(=O)N2CCc3c(C(=O)NCCCN(C)C)cccc32)cc1 | inconclusive: 17.8 µM [inhibitor, single point] | – |
| O=C1CC2(CCN(S(=O)(=O)c3cccs3)CC2)Oc2ccccc21 | inconclusive: 11.2 µM [inhibitor, partial curve] | – |
| CC1(C)[C@H](Cc2cc(CCO)on2)C[C@@H]1NCc1ccccn1 | inconclusive: 12.6 µM [inhibitor, partial curve] | – |
| Cc1ccccc1OCCn1c(=N)n(C(C)C)c2ccccc21 | active: 5.62 µM | – |
| CCOc1ccc(C2=CC(c3cccc(Br)c3)n3c(nc4ccccc43)N2)cc1Cl (stereo unspecified) | inconclusive: 0.891 µM [inhibitor, partial curve, poor fit] | – |
| COc1ccc(-c2noc([C@@H]3Cc4nc[nH]c4CN3Cc3ccc(C)cc3)n2)cc1 | inconclusive: 14.1 µM [inhibitor, partial curve, poor fit] | – |
| Cc1ccc2[nH]c(=O)c(CCC(=O)N(C)Cc3cn(C)nc3C)cc2c1 | inactive | – |
| Cc1cccc(OCC(=O)N2CCc3nn(Cc4ccccc4)c(=O)n3CC2)c1 | inconclusive: 3.16 µM [inhibitor, full curve, poor fit] | – |
| COCCOc1ccc2c(n1)CCN(C(=O)c1ccco1)C2 | inconclusive: 8.91 µM [inhibitor, single point] | – |
| CC(C)N1C(=O)C2(CCN(C(=O)c3ccc(Cl)cc3)C2)c2ccccc21 (stereo unspecified) | inconclusive: 7.94 µM [inhibitor, single point] | – |
| COc1ccc(C(=O)NCC(=O)N2CCCCCNC(=O)CC2c2ccccc2)cc1 (stereo unspecified) | inactive | – |
| O=C(Nc1ccc2oc(-c3cc(Br)ccc3Cl)nc2c1)c1cc2ccccc2o1 | inconclusive: 20 µM [inhibitor, partial curve, poor fit] | – |
| Cc1nc(-c2ccco2)cc([C@H]2CN3CC[C@H]2C[C@@H]3CNC(=O)NC2CCCCC2)n1 | inconclusive: 2 µM [inhibitor, partial curve, poor fit] | – |
| CN(C(=O)[C@@H]1C[C@H](c2ccc(F)cc2)N([S+](=O)([O-])C2CC2)C1)c1ccccc1 | inconclusive: 0.631 µM [inhibitor, partial curve, poor fit] | – |
| Cc1cc2oc(C(=O)Nc3ccc(S(=O)(=O)N(C)Cc4ccccc4)cc3)cc(=O)c2cc1C | inactive | – |
| CNC(=O)[C@@H]1CN(C(=O)c2cc(C)cc(C)c2)C[C@H]1CO | inactive | – |
| CCOc1ccc(NC(=O)C2CCN(C(=O)N3CC(C)Oc4ccc(Cl)cc43)CC2)cc1 (stereo unspecified) | active: 12.6 µM | – |
| O=C(c1ccc2c(c1)OCO2)N1CCC2(CC1)N=C(c1ccc(Cl)cc1)NO2 | active: 7.94 µM | – |
| CN1C[C@H](C(=O)Nc2cccc(Cl)c2)C[C@H]1c1cccc(C(F)(F)F)c1 | inconclusive: 2.82 µM [inhibitor, single point] | – |
